Values joined by “and” are separate entries in the source; they are usually repeats but may differ in a detail not shown here. Equal values may be shown once. Over roughly 5,300 compounds, “PER2::LUC luminescence relative to vehicle control” has its median near 0.96; the highest 2% begin near 1.3. The list shows a part of the results.
Tested on: mPer2Luc MEF
Experiment: PER2::LUC luminescence relative to vehicle control (fold of vehicle); higher = higher PER2::LUC reporter signal
Settings: 10 µM
How it was run: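 The reported values are PER2::LUC luminescence as fold of vehicle control in mouse embryonic fibroblasts carrying the mPer2Luc reporter. Cells were seeded at ~3000 per well in 384-well plates in DMEM with 10% FBS at 37 °C and 5% CO2, and compounds were added at 10 μM 48 h later. ONE-Glo luminescence was read 24 h and 30 h after treatment.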

Compound | PER2::LUC luminescence (time after treatment 24 h) | PER2::LUC luminescence (time after treatment 30 h)
Nc1ccc(C(=O)O)cc1 | 0.924 and 0.9 | 0.926 and 0.943
CCN1CCCC(OC(=O)C(c2ccccc2)c2ccccc2)C1 (stereo not given) | 0.94 | 0.928
C[C@H](Cc1cc2c(c(C(N)=O)c1)N(CCCO)CC2)NCCOc1ccccc1OCC(F)(F)F | 0.884 | 0.606
CN(C)CCOc1ccc(-c2nc(-c3ccncc3)c(-c3ccc4c(c3)CC/C4=N\O)[nH]2)cc1 | 0.851 | 1.13
NCCNCCNCCN | 1.02 | 0.896
CN(C)CCCSC(=N)N | 0.801 | 0.768
CNC(=O)Nc1ccc(OC)c(NC(=O)NC(=O)c2cc(F)c(F)cc2Cl)c1 | 1.15 | 1.04
NS(=O)(=O)OC[C@@H]1C[C@@H](n2ccc3c(N[C@H]4CCc5ccccc54)ncnc32)C[C@@H]1O | 0.538 | 0.688
Cc1ccc(-n2sc(=O)n(Cc3ccc(F)cc3)c2=O)cc1 | 1.13 | 1.33
O=C(NCCN1CCOCC1)c1ccc(Cl)cc1 | 1.09 and 1.08 | 0.965 and 1.2
O=C(c1ccc(CN2CCOCC2)cc1)N1CCN(C2CC2)CC1 | 1.07 | 0.963
O=C(CCc1ccc(O)cc1)c1c(O)cc(O)cc1O[C@@H]1OC(CO)[C@@H](O)[C@@H](O)C1O (stereo not given in full) | 0.993 | 0.943
C/C(=C\C(=O)Nc1ccccc1C(=O)O)c1ccc2ccccc2c1 | 1.53 | 1.46
O=C(c1ccc(/C=C/c2n[nH]c3ccccc23)cc1)N1CCNCC1 | 0.405 | 0.358
CC12CCc3occc3C1CCC13CC(=O)C(CCC12)C3 (stereo not given) | 0.996 | 0.94
COCc1nc2c([nH]1)c(=O)n(C)c(=O)n2CC(C)C | 1.09 | 0.792
COc1ccc(C[C@H](N)C(=O)N[C@H]2[C@@H](O)[C@H](n3cnc4c(N(C)C)ncnc43)O[C@@H]2CO)cc1 | 0.186 | 0.173
[O-][n+]1cccc(CO)c1 | 0.924 | 0.894
CCCCS(=N)(=O)CCC(N)C(=O)O (racemic) | 1.01 | 0.875
NC(=O)OCC(COC(N)=O)c1ccccc1 | 1.09 | 0.997
Cc1ccnc(NS(=O)(=O)c2ccc(N)cc2)n1 | 0.797 | 0.97
N.N.O=C([O-])C[O-].[Pt+2] | 1.05 | 1.04
COC(=O)N[C@H](C(=O)N[C@@H](Cc1ccccc1)[C@@H](O)CN(Cc1ccc(-c2ccccn2)cc1)NC(=O)[C@@H](NC(=O)OC)C(C)(C)C)C(C)(C)C | 0.876 | 0.954

Compound | PER2::LUC luminescence (time after treatment 24 h) | PER2::LUC luminescence (time after treatment 30 h)
Nc1ccc(S(=O)(=O)Nc2cnc3ccccc3n2)cc1 | 1.02 and 0.897 | 0.884 and 0.829
CNC[C@H](O)[C@@H](O)[C@H](O)[C@H](O)CO | 0.928 | 1.05
NCCCC(O)(P(=O)(O)O)P(=O)(O)O | 0.666 | 0.999
Cc1c2c(c(O)c3c(O)cccc13)C(=O)O[C@@H]2[C@@H]1[C@H](O)C(=O)C(C(N)=O)=C(O)[C@H]1N(C)C [Alpha-APO-OXYTETRACYCLINE] | 0.979 | 0.958
CC1=C([C@@H]2C=C3[C@@H](CC[C@]4(C)[C@@H]([C@H](C)CCCC(C)C)CC[C@@H]34)n3c(=O)n(-c4ccccc4)c(=O)n32)C[C@@H](O)C[C@@H]1O | 0.94 | 0.899
COC(=O)Nc1ccc(-c2nc(N3CCOCC3)c3cnn(C4CCN(C(=O)OC)CC4)c3n2)cc1 | 0.44 | 0.732
CCCCCCCCCC[Si](C)(C)CCC(=O)NC(Cc1ccc(C)cc1)c1ccccc1 (stereo not given) | 1.11 | 1.16
OC(CCN1CCCCC1)(c1ccccc1)C1CCCCC1 (racemic) | 0.755 | 0.805
CCCCNc1cc(C(=O)O)cc(S(N)(=O)=O)c1Oc1ccccc1 | 1.21 | 1.86
C[C@H](Cn1cnc2c(N)ncnc21)OCP(=O)(O)O | 1.03 | 1.25
CCOC(=O)[C@H](C)C[C@@H](Cc1ccc(-c2ccccc2)cc1)NC(=O)CCC(=O)O | 1.09 | 0.971
N#CC(c1ccnc(OCc2ccc(CN3CCOCC3)cc2)n1)c1nc2ccccc2s1 (stereo not given) | 0.531 | 0.65
O=c1c(O[C@@H]2O[C@H](CO)[C@@H](O)[C@H](O)[C@H]2O)c(-c2ccc(O)c(O)c2)oc2cc(O)cc(O)c12 | 0.974 | 0.999
O=c1ncc(F)c[nH]1 | 0.979 | 0.911
N[C@H](C(=O)O)[C@@H]1CC(Cl)=NO1 | 0.429 | 0.458
CC(=O)Oc1ccccc1C(=O)Oc1ccccc1C(=O)O | 0.951 | 0.934
CC(C)n1c(/C=C/C(O)CC(O)CC(=O)O)c(-c2ccc(F)cc2)c2ccccc21 (stereo not given) | 0.544 and 0.472 | 0.46 and 0.331
O=C(NCCCN1CCCCCC1)C(c1ccccc1)C1CCCCC1 (stereo not given) | 0.809 | 0.898
O=C(O)c1ccncc1 | 0.962 | 0.954
CC[C@H](NC(=O)c1c(O)c(-c2ccccc2)nc2ccccc12)c1ccccc1 | 1.04 | 0.983
CCCCCC(O)c1cccc(OCc2ccc3ccccc3n2)c1 (stereo not given) | 1.04 | 1.22
COc1ccc2[nH]c(-c3ccccc3)c(CCNC(C)=O)c2c1 | 0.762 | 0.89
CC(C)(C)c1ccc(C(=O)CCCN2CCC(OC(c3ccccc3)c3ccccc3)CC2)cc1 | 1.01 | 1.03

Compound | PER2::LUC luminescence (time after treatment 24 h) | PER2::LUC luminescence (time after treatment 30 h)
O=c1ccn([C@@H]2O[C@H](CO)[C@@H](O)[C@H]2O)c(=O)[nH]1 | 0.979 | 1.03
COc1cccc2cc(-c3nc([C@H]4CC[C@H](C(=O)O)CC4)n4ncnc(N)c34)[nH]c12 | 0.517 | 0.54
Oc1cccc2[nH]ccc12 | 0.989 | 1
CC(C)C[C@H](N)C(=O)N[C@@H](C)C(=O)O | 1.01 | 0.99
C[C@@H](c1nc(-c2ccc(C#N)cc2)cs1)[C@](O)(Cn1cncn1)c1cc(F)ccc1F | 0.999 | 0.999
CC(=O)CCCCn1cnc2c1c(=O)n(C)c(=O)n2C | 0.931 | 0.944
Cn1ccnc1 | 1.06 | 1.02
CCN(CC)CCOC(=O)c1ccc(N)cc1 | 1.07 and 0.897 | 1.58 and 0.928
CCOC(=O)c1c(C)cc(O)c(C=O)c1O | 0.921 | 0.928
COc1ccc(-c2coc3c4c(c(CC=C(C)C)c(O)c3c2=O)OC(C)(C)C=C4)cc1 | 0.893 | 0.894
Cc1c(C)c2c(c(C)c1O)CCC(C)(C(=O)O)O2 (stereo not given) | 1.08 | 1.22
Clc1ccc(C(Cn2ccnc2)OCc2ccc(Sc3ccccc3)cc2)c(Cl)c1 (stereo not given) | 0.905 | 1.06
CC[C@H](C)C(=O)O[C@H]1C[C@@H](C)C=C2C=C[C@H](C)[C@H](CC[C@@H]3C[C@@H](O)CC(=O)O3)[C@H]21 | 0.614 | 0.507
NC1CCN(O)C1=O (racemic) | 1.06 | 0.968
COc1cccc(-c2cc(=O)c3cc(OC)ccc3o2)c1 | 1.22 | 1.49
CCN(CC)C(=O)C(c1ccccc1)N1CCN(c2ccc(NC(=O)c3ccccc3-c3cccnc3)cc2F)CC1 (stereo not given) | 0.968 | 1.09
CN(C)CCn1nnnc1SCC1=C(C(=O)O)N2C(=O)[C@@H](NC(=O)Cc3csc(N)n3)[C@H]2SC1 | 0.665 | 0.948
N[C@@H](CCCC(=O)O)C(=O)O | 1.1 | 0.958
O=c1cc(-c2ccccc2)oc2cc(O)c(O)c(O)c12 | 1.13 | 1.1
CC(C)CCCC(C)N (stereo not given) | 0.899 | 0.987
COc1cc(C2Oc3cc([C@H]4Oc5cc(O)cc(O)c5C(=O)[C@@H]4O)ccc3OC2CO)ccc1O (stereo not given in full) | 1.05 and 1.02 and 0.819 | 0.985 and 0.972 and 1.15
O=c1[nH]c2cc(C(F)(F)F)ccc2n1-c1cc(C(F)(F)F)ccc1O | 1.02 | 1.22
CC(=O)N[C@@H](CS)C(=O)O | 1.04 and 0.979 | 0.991 and 1.2

Compound | PER2::LUC luminescence (time after treatment 24 h) | PER2::LUC luminescence (time after treatment 30 h)
N[C@@H](Cc1cc(I)c(Oc2ccc(O)cc2)c(I)c1)C(=O)O | 0.918 | 1.04
C[C@]1(c2nc3c(C(N)=O)cccc3[nH]2)CCCN1 | 1.08 and 0.967 and 1.16 | 1.01 and 0.999 and 1.18
N#C/C(=C\c1ccc(O)c(O)c1)C(=O)NCCc1ccccc1 | 0.619 | 1.06
O=c1cc(-c2ccccc2)[nH]c2nc(Cl)ccc12 | 0.918 | 0.918
O=C(O)Cc1cccc(OCCCN(Cc2cccc(C(F)(F)F)c2Cl)CC(c2ccccc2)c2ccccc2)c1 | 1.4 | 1.47
O=c1[nH]c(=O)c2nc3ccccc3nc2[nH]1 | 1.1 | 0.912
O=C1C(CC[S+]([O-])c2ccccc2)C(=O)N(c2ccccc2)N1c1ccccc1 (stereo not given) | 1 | 1.08
CCn1c(=O)c(-c2ccc(-c3cncs3)cc2Cl)cc2cnc(Nc3ccc(N4CCN(C)CC4)cc3)nc21 | 1.11 | 1.29
Clc1ccc2c(c1)N=C(N1CCNCC1)c1ccccc1N2 | 0.496 | 0.526
CC(=O)OC/C=C(C)/C=C/C=C(C)/C=C/C1=C(C)CCCC1(C)C | 0.964 | 0.832
CCCCC(=O)OCC(=O)[C@]1(O)Cc2c(O)c3c(c(O)c2[C@@H](O[C@H]2C[C@H](NC(=O)C(F)(F)F)[C@H](O)[C@H](C)O2)C1)C(=O)c1c(OC)cccc1C3=O | 0.904 | 0.561
NS(=O)(=O)c1cc2c(cc1Cl)N=C(CSCc1ccccc1)NS2(=O)=O | 1.05 | 1.03
OC[C@@H](O)[C@@H](O)CO | 1.01 | 0.956
CCC[C@H](N[C@@H](C)C(=O)N1[C@H](C(=O)O)C[C@@H]2CCCC[C@@H]21)C(=O)O | 0.996 | 0.98
CCCn1c(=O)c2[nH]c(-c3ccccc3)nc2n(CCC)c1=O | 0.925 | 0.976
O=C1NC(=O)/C(=C/c2ccc(-c3ccc(F)cc3O)o2)S1 | 0.691 | 1.18
NC1(c2ccc(-c3nc4ccn5c(=O)[nH]nc5c4cc3-c3ccccc3)cc2)CCC1 | 0.223 | 0.276
Cc1ccccc1/C=C/C1=NCCN1 | 0.856 | 0.889
CC[C@@]1(O)C(=O)OCc2c1cc1n(c2=O)Cc2cc3cc(O)ccc3nc2-1 | 0.836 | 0.79
CC[C@H](C)n1cc(C)c2c(C(=O)NCc3c(C)cc(C)[nH]c3=O)cc(-c3ccc(N4CCNCC4)nc3)cc21 | 0.703 | 0.74
Cc1cccc(-c2[nH]c(C(C)(C)C)nc2-c2ccc3nccnc3c2)n1 | 0.697 | 0.533

From the supplement of paper PMC9334596
